The other results are listed elsewhere or left out. Many values rest on one well or one pass, so single values are uncertain.
How the values were obtained:
Assay in all cases: cell viability relative to vehicle (% of vehicle); basal-like triple-negative breast cancer lines; higher = less cytotoxic
Details in all cases: 10 µM; 72 h
[1] = system: HCC-1143
[2] = system: HCC-1187
[3] = system: MDA-468
[4] = system: SUM-149
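Also: stably firefly luciferase-GFP labeled cells in 96-well plates, viability read as luciferase photon flux after d-luciferin addition, treated wells normalized to vehicle wells, single-dose high-throughput screen.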

Row | SMILES | cell viability [1] | cell viability [2] | cell viability [3] | cell viability [4]
1 | Cn1cnc2c(F)c(Nc3ccc(Br)cc3Cl)c(C(=O)NOCCO)cc21 [AZD6244 (Selumetinib)] | 119 | 59.2 | 114 | 102
2 | Nc1ccc2cc3ccc([NH3+])cc3nc2c1.Nc1ccc2cc3ccc([NH3+])cc3nc2c1.O=S(=O)([O-])[O-] [Proflavine Hemisulfate] | 27.7 | 24.1 | 27.2 | 101
3 | COC(=O)N(C)c1c(N)nc(-c2nn(Cc3ccccc3F)c3ncccc23)nc1N [Riociguat] | 107 | 103 | 80.3 | 115
4 | CC(=O)C1(O)Cc2c(O)c3c(c(O)c2C(OC2CC(N)C(O)C(C)O2)C1)C(=O)c1ccccc1C3=O.Cl (stereo not drawn) [Idarubicin HCl] | 27.1 | 21.9 | 26.4 | 31.4
5 | CCN(CC)CCNC(=O)c1cc(Cl)c(N)cc1OC [Metoclopramide] | 89.3 | 110 | 86 | 128
6 | C[N+]1(C)CCC(OC(=O)C(O)(c2ccccc2)C2CCCC2)C1.[Br-] (stereo not drawn) [Glycopyrrolate] | 66.9 | 81 | 124 | 113
7 | N[C@@H](CCC(=O)N[C@@H](CS)C(=O)NCC(=O)O)C(=O)O [L-Glutathione Reduced] | 92 | 103 | 98.9 | 77.3
8 | Oc1ccc(C2CNCCc3c2cc(O)c(O)c3Cl)cc1 (stereo not drawn) [Fenoldopam] | 96.1 | 116 | 102 | 105
9 | CC1(C(=O)[O-])CCC2(C)CCC3(C)C(=CC(=O)C4C5(C)CCC(OC(=O)CCC(=O)[O-])C(C)(C)C5CCC43C)C2C1.[Na+].[Na+] (stereo not drawn) [Carbenoxolone disodium] | 77 | 92.2 | 94.6 | 87.8
10 | COC1C(O)CC(=O)OC(C)CC=CC=CC(OC2CCC(N(C)C)C(C)O2)C(C)CC(CC=O)C1OC1OC(C)C(OC2CC(C)(O)C(O)C(C)O2)C(N(C)C)C1O (stereo not drawn) [Spiramycin] | 102 | 112 | 102 | 116
11 | CC(=O)c1cc2c(o1)C(=O)c1ccccc1C2=O [Napabucasin] | 24.1 | 19.2 | 32.2 | 28.9
12 | COC1C(OC(N)=O)C(O)C(Oc2ccc3c(O)c(NC(=O)c4ccc([O-])c(CC=C(C)C)c4)c(=O)oc3c2C)OC1(C)C.[Na+] (stereo not drawn) [Novobiocin Sodium] | 139 | 106 | 96.9 | 99.6
13 | Nc1ncnc2c1ncn2C1OC(CO)C(O)C1O (stereo not drawn) [Vidarabine] | 94.5 | 108 | 92.1 | 102
14 | Cc1c(O)cccc1C(=O)NC(CSc1ccccc1)C(O)CN1CC2CCCCC2CC1C(=O)NC(C)(C)C (stereo not drawn) [Nelfinavir] | 77.3 | 75.6 | 103 | 88.3
15 | CC(O)(P(=O)(O)O)P(=O)(O)O [Etidronate] | 84.5 | 91.6 | 126 | 86.1
16 | Br.COc1ccc2c3c1O[C@H]1C[C@@H](O)C=C[C@@]31CCN(C)C2 [Galanthamine HBr] | 65.2 | 89.4 | 85.5 | 110
17 | Cl.Cl.Clc1ccc(Nc2nnc(Cc3ccncc3)c3ccccc23)cc1 [Vatalanib (PTK787) 2HCl] | 85.7 | 91.5 | 81.7 | 92.4
18 | COc1cc2nccc(Oc3ccc(NC(=O)Nc4cc(C)on4)c(Cl)c3)c2cc1OC [Tivozanib (AV-951)] | 87.6 | 76.6 | 90.7 | 111
19 | COc1ccc2c(c1)C(=O)N(CCc1ccc(S(=O)(=O)NC(=O)NC3CCCCC3)cc1)C(=O)C2(C)C [Gliquidone] | 110 | 107 | 105 | 113
20 | Cc1ccc(-n2nc(C(C)(C)C)cc2NC(=O)Nc2ccc(OCCN3CCOCC3)c3ccccc23)cc1 [BIRB 796 (Doramapimod)] | 88.5 | 117 | 78.8 | 86.8
21 | Cc1c(F)cc(C(=O)NC2CC2)cc1-c1ccc(C(=O)NCC(C)(C)C)cn1 [Losmapimod] | 74.4 | 107 | 122 | 58.1
22 | O=C(O)Cc1ccccc1Nc1c(Cl)cccc1Cl [Diclofenac] | 107 | 100 | 109 | 115
23 | Nc1nc(F)nc2c1ncn2C1OC(COP(=O)(O)O)C(O)C1O (stereo not drawn) [Fludarabine Phosphate (Fludara)] | 74.8 | 118 | 113 | 150
24 | Nc1ccc(S(=O)(=O)Nc2ccccn2)cc1 [Sulfapyridine] | 122 | 124 | 105 | 101
25 | C[N+](C)(CCOc1ccccc1)Cc1ccccc1.O=C(O)c1cc2ccccc2cc1[O-] [Bephenium Hydroxynaphthoate] | 84.8 | 131 | 160 | 177
26 | CC(C)[N+]1(C)C2CCC1CC(OC(=O)C(CO)c1ccccc1)C2.[Br-] (stereo not drawn) [Ipratropium Bromide] | 140 | 122 | 151 | 150

Row | SMILES | cell viability [1] | cell viability [2] | cell viability [3] | cell viability [4]
27 | Cc1cc(Nc2cc(CN3CCOCC3)c3nc(C)c(Cc4ccc(Cl)cc4F)n3n2)n[nH]1 | 85.2 | 51.3 | 69.8 | 153
28 | CC(=O)c1c(C)c2cnc(Nc3ccc(N4CCNCC4)cn3)nc2n(C2CCCC2)c1=O.Cl | 106 | 93.6 | 103 | 120
29 | CC1CC(OC(=O)C(O)c2ccccc2)CC(C)(C)C1 (stereo not drawn) [Cyclandelate] | 69 | 98.8 | 99 | 94.1
30 | Cc1ccc(C(=O)N(CCCN)C(c2nc3cc(Cl)ccc3c(=O)n2Cc2ccccc2)C(C)C)cc1 (stereo not drawn) | 27.4 | 24.6 | 23.3 | 31.4
31 | CN1CCCC(n2nc(Cc3ccc(Cl)cc3)c3ccccc3c2=O)CC1.Cl (stereo not drawn) [Azelastine HCl] | 81.6 | 83.5 | 98.7 | 87.4
32 | CCCC1CC(C(=O)NC(C(C)Cl)C2OC(SC)C(OP(=O)(O)O)C(O)C2O)N(C)C1 (stereo not drawn) [Clindamycin Phosphate] | 61.3 | 86.1 | 95 | 87.3
33 | NC(CO)(CO)CO [Trometamol] | 67.3 | 83.3 | 100 | 109
34 | CN1CCN2c3ccccc3Cc3ccccc3C2C1.Cl (stereo not drawn) [Mianserin HCl] | 92.4 | 96.9 | 92.6 | 107
35 | Cc1ccsc1C(=CCCN1CCC[C@@H](C(=O)O)C1)c1sccc1C [Tiagabine] | 69.5 | 79.6 | 105 | 88.1
36 | Cc1ccc(-n2[nH]c(C)c(NN=C3C=CC=C(c4cccc(C(=O)O)c4)C3=O)c2=O)cc1C.NCCO.NCCO [Eltrombopag Olamine] | 74.6 | 115 | 87.9 | 106
37 | NC(=O)N1CCC(CC(=O)N2CCC(C3c4ncc(Br)cc4CCc4cc(Cl)cc(Br)c43)CC2)CC1 (stereo not drawn) [Lonafarnib] | 28.4 | 69.9 | 28.8 | 155
38 | Cl.Cl.NCCc1cnc[nH]1 [Histamine 2HCl] | 84.8 | 96.2 | 74 | 109
39 | CC12CCC(=O)C=C1C1CC1C1C2CCC2(C)C1C1CC1C21CCC(=O)O1 (stereo not drawn) [Drospirenone] | 79.1 | 98 | 86.7 | 103
40 | CC(=O)O.C[C@H](N)C(=O)O.NCCCC[C@H](N)C(=O)O.N[C@@H](CCC(=O)O)C(=O)O.N[C@@H](Cc1ccc(O)cc1)C(=O)O [glatiramer acetate] | 71.9 | 97.5 | 110 | 84.8
41 | O=CC(O)C(O)C(O)CO (stereo not drawn) [Xylose] | 96.7 | 109 | 103 | 93.7
42 | CCCCCCCCCCCCCCCCCCCCCCO [Docosanol (Abreua)] | 72.6 | 85 | 99 | 88.9
43 | CS(=O)(=O)CCNCc1ccc(-c2ccc3ncnc(Nc4ccc(OCc5cccc(F)c5)c(Cl)c4)c3c2)o1 [Lapatinib] | 95.6 | 77.3 | 80.1 | 115
44 | O=C1NC(=O)C(c2ccccc2)(c2ccccc2)N1 [Phenytoin] | 101 | 123 | 110 | 135
45 | CN1C2CCCC1CC(NC(=O)c1nn(C)c3ccccc13)C2.Cl (stereo not drawn) [Granisetron HCl] | 101 | 94.1 | 99.4 | 105
46 | CCCC1CC(C(=O)NC(C(C)Cl)C2OC(SC)C(O)C(O)C2O)N(C)C1.Cl (stereo not drawn) [Clindamycin HCl] | 74.4 | 80.5 | 114 | 135
47 | C#CC1(O)CCC2C3CCC4=CC(=O)CCC4C3CCC21CC (stereo not drawn) [Levonorgestrel] | 75.7 | 112 | 101 | 91.5
48 | c1coc(CNc2ncnc3nc[nH]c23)c1 [Kinetin] | 112 | 124 | 90.2 | 149
49 | CNCCc1ccccn1.Cl.Cl [Betahistine 2HCl] | 80.5 | 98.9 | 97.4 | 109
50 | NC(=O)NN=Cc1ccc([N+](=O)[O-])o1 [Nitrofurazone] | 106 | 136 | 99.1 | 97.5
51 | Cc1nnc(SCC2=C(C(=O)[O-])N3C(=O)[C@@H](NC(=O)Cn4cnnn4)[C@H]3SC2)s1.[Na+] [Cefazolin (sodium salt)] | 109 | 106 | 108 | 82.2
52 | O=C(O)c1ccc2c(c1)nc(Nc1cccc(Cl)c1)c1ccncc12 [CX-4945 (Silmitasertib)] | 86.5 | 82.5 | 22.6 | 159

From the supplement of paper PMC8512760
